Data taken from article PMC4336329 (PLoS ONE, 2015).
Screen size: about 310,000 compounds; about 14,000 (4.5%) showed an effect of 50% or more. The effect is printed as a negative number. The list shows a part of the results.

Each compound was assayed against human ether-à-go-go-related gene (hERG) potassium channel (human, UniProt Q12809) (assay: primary screen, population patch clamp on CHO cells stably expressing hERG).
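Further: peak tail current of the secondary pulse compared with the same well before compound.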

Sequence of human ether-à-go-go-related gene (hERG) potassium channel (Q12809 whole entry, looked up): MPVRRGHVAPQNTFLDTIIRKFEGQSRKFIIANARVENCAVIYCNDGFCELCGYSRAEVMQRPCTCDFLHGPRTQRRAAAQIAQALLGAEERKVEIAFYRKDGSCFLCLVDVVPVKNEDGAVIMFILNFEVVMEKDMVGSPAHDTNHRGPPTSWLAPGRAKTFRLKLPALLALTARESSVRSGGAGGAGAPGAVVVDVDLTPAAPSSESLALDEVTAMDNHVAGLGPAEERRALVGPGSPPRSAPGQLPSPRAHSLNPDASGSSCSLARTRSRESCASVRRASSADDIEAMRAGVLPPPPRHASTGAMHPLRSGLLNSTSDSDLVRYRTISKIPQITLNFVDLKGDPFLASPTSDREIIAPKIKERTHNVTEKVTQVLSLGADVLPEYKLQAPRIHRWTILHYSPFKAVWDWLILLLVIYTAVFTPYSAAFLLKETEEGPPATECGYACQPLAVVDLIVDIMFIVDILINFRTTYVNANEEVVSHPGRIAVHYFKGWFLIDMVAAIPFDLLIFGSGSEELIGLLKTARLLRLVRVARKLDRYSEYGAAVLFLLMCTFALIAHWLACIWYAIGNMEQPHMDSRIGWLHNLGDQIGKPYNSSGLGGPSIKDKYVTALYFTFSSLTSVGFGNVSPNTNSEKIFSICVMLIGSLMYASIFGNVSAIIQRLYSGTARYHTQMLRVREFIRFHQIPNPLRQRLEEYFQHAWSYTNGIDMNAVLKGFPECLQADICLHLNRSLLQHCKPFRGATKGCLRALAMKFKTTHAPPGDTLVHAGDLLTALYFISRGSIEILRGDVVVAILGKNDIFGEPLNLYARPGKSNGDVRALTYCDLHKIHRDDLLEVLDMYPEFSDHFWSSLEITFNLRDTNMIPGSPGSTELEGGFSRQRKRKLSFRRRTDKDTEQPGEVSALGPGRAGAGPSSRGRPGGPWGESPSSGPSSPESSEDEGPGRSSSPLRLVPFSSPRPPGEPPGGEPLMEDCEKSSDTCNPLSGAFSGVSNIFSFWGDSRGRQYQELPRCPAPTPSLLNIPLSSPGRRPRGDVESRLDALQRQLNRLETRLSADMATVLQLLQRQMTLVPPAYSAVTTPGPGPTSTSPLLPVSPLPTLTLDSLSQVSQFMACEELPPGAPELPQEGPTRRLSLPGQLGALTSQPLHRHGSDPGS

Point of comparison: `O=[N+]([O-])c1cccc(/C=N/NC2=NCCCCC2)c1`, “hERG current change (%, negative = inhibition) at 10uM” value -83%. Against it:
- O.[I-].c1ccc2[nH]c(-c3cc[nH+]c4ccccc34)nc2c1 — higher, -12.6%
- O=Cc1ccccc1OCc1nnsc1Cl — higher, 12.8%
- O=C(Nc1nc2ccccc2s1)C1CC(=O)N(c2ccc(Cl)cc2)C1 (stereo not drawn) — higher, 4.35%
- Cc1nn(C)c2c(=O)c(=O)c2n(C)[nH]1 — higher, 18%
- CSc1nc(-c2ccco2)nn1C(=O)c1ccco1 — higher, 11.7%
- CCOc1ccc(-c2cc(C(=O)N3CCN(c4ccccn4)CC3)c3ccccc3n2)cc1 — higher, 2.79%
- CC1(C)Cc2c(sc(NC(=O)c3ccc(S(=O)(=O)N4CCCCCC4)cc3)c2C#N)C(C)(C)N1 — higher, -65.8%
- CN(C)CC(=O)Nc1ccc(S(N)(=O)=O)cc1 — higher, 14%
- CC1CC(OC(=O)C(O)c2ccccc2)CC(C)(C)N1C.Cl (stereo not drawn) — higher, 4.17%
- COc1ccc2c(c1)Cc1sc(NC(=O)c3cccs3)nc1-2 — higher, -13.8%
- Cc1onc(-c2ccccc2Cl)c1C(=O)N[C@@H](C)c1ccccc1 — higher, -2.24%
- O=c1[nH]c(-c2ccccc2)ncc1Oc1ccccc1 — higher, 9.07%
- CCOC(=O)C(C(=O)OCC)C(C)(C)/C(C)=N\Nc1ccc([N+](=O)[O-])cc1[N+](=O)[O-] — higher, -40.8%
- CC(=O)N1c2ccc(S(=O)(=O)N(C)CC(=O)Nc3cccc(C)c3)cc2CC1C (stereo not drawn) — higher, 8.43%
- CCN(C(=O)CSc1nc(N)cc(=O)[nH]1)c1c(N)n(Cc2ccccc2)c(=O)[nH]c1=O — higher, 2.41%
- CCOC(=O)Nc1c(Cl)n(C)c(=O)n(C)c1=O — higher, 11.9%
- CCc1cc(C(=O)N(CCCOC)c2c(N)n(Cc3ccccc3)c(=O)[nH]c2=O)sc1C — higher, -31.1%
- O=C(O)c1cc(-c2ccc(/C=C3\NC(=O)N(c4ccccc4)C3=O)o2)ccc1Cl — higher, 1.61%
- C/C(N)=C(/C#N)C(=O)COC(=O)c1cc(-c2ccc(Br)cc2)nc2ccccc12 — higher, 25.4%
- COC(=O)c1sccc1S(=O)(=O)NC(C)c1cnn(-c2ccc(OC)cc2)c1C (stereo not drawn) — higher, 2.98%
- COc1cc(OC)c(OC)cc1CNc1cc(C)ccc1OC — higher, -15.4%
- CCOC(=O)c1ccc(NC(=O)CCNS(=O)(=O)c2cc(Br)cnc2N)cc1 — higher, 9.89%
- Cc1ccc(S(=O)(=O)Oc2ccc(C3C4=C(CCCC4=O)OC4=C3C(=O)CCC4)cc2)cc1 — higher, -3.78%
- CC1CCCN(Cc2ccc(OCc3ccccc3)cc2)C1 (stereo not drawn) — higher, -43.3%
- O=c1o[nH]c(-c2ccccc2)c1N=Nc1c(F)cccc1Cl — higher, 14.2%
- Cc1cc(NC(=O)CCCn2cnc([N+](=O)[O-])n2)no1 — higher, 1.48%
- O=C(NCc1cccnc1)c1ccc(CS(=O)(=O)c2ccc(Cl)cc2)o1 — higher, -10.3%
- Nc1cc(C(=O)O)ccc1N1CCCCCC1 — higher, 8.56%
- Cn1c(CN2CCN(C(=O)c3ccccc3Cl)CC2)nc2cc([N+](=O)[O-])ccc21 — higher, -70.7%
- COc1cc2[nH]c(=S)n(Cc3ccc(F)cc3)c(=O)c2cc1OC — higher, 20.8%
- Cc1ccc(C(=O)Nc2ccc(-n3ccnc3P(=O)([O-])c3ccccc3)cc2)cc1.[K+] — higher, 13.4%
- Cc1ccc(S(=O)(=O)N(C(=O)c2ccncc2)c2ccc(OC(=O)c3ccncc3)c3ccccc23)c(C)c1 — higher, -23.2%
- CCOC(=O)COc1cc2c3c(c(=O)oc2cc1C)CCCC3 — higher, -1.76%
- Cc1ccc(CNC(=O)c2csc3c2CCCCC3)cc1 — higher, 2.19%
- CC1CCN(c2ccccc2NC(=S)NC(=O)c2ccco2)CC1 — higher, 5.64%
- CC1=NN(Cc2c(C)nn(Cc3ccccc3)c2C)C(C)(C)C1 — higher, 11.2%
- CCCc1nc2sc3c(c2c(=O)[nH]1)CCCC3 — higher, 9.15%
- Cc1ccc(C)c(NC(=O)NNC(=O)CCc2ccccc2)c1 — higher, 1.13%
- CC(=O)O[C@H]1C(=O)[C@@]2(C)C([C@H](OC(=O)c3ccccc3)[C@]3(O)C[C@H](OC(=O)[C@H](O)[C@@H](NC(=O)c4ccccc4)c4ccccc4)C(C)=C1C3(C)C)[C@]1(OC(C)=O)CO[C@@H]1C[C@H]2O (stereo partly drawn) — higher, 13.1%
- CC(Nc1ccc2c(c1)OCCO2)C(=O)N1CCc2ccccc21 (stereo not drawn) — higher, 15.3%
- Cc1cccc2c1CC(C)(C)N=C2C1=C(O)CCCC1=O — higher, 3.81%
